First the molecules themselves.
B1: Caulobacter ParB omega fusion; a variant is named by its letters at X, in order, B8GW30 (parent)
chain: MESVVVGEPGMSEGRRGLGRGLSALLGEVDAAPAQAPGEQLGGSREAPIEILQRNPDQPRRTFREEDLEDLSNSIREKGVLQPILVRPSPDTAGEYQIVAGERAWRAAQRAGLKTVPIMVRELDDLAVLEIGIIENVQRADLNVLEEALSYKVLMEKFERTQENIAQTIGKSXSHVANXMRLLXLPDEVQSYLVSGELTAXHARAIAAAADPVALAKQIIEGGLSVRETEALARKAPNLSAGKSKGGRPPRVKDTDTQALESDLSSVLGLDVSIDHRGSTGTLTITYATLEQLDDLCNRLTRGI

The full ranking holds about 81,000 sequences; the median of “one-hybrid fitness for binding NBS DNA” is about -0.1, and the highest 2% start at about 0.36. The list shows a part of the results.

In this assay the parent is B1. As to the kind of experiment: one-hybrid fitness for binding NBS DNA (the Noc-binding site; scaled: cognate 1, non-cognate 0); higher = stronger binding. As to conditions: with NBS DNA site. The gist of the method:
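Fitness here means the log change in variant-to-wild-type read ratio between plasmids sequenced before and after selection. That scale was set so cognate equals 1 and non-cognate equals 0. The selection was a bacterial one-hybrid screen of Caulobacter ParB libraries, four specificity codons randomised, in E. coli USO carrying a HIS3 reporter with the site 19 bp from the promoter, grown 48 hours at 37°C on M9-minus-histidine with 0.1 mM IPTG and 5 mM 3-AT.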
In the case of WTQV, the “one-hybrid fitness for binding NBS DNA” value is no more than 0.2.
On to ATYR, for which the “one-hybrid fitness for binding NBS DNA” value is no more than 0.2.
For HANG the value was no more than 0.2.
For the variant GVLA, the “one-hybrid fitness for binding NBS DNA” value is no more than 0.2.
KLTW: the “one-hybrid fitness for binding NBS DNA” value is no more than 0.2.
For LGLD, the “one-hybrid fitness for binding NBS DNA” value was no more than 0.2.
For QCKD the value was 0.337.
Take SMMG: the “one-hybrid fitness for binding NBS DNA” value was no more than 0.2.
With TTGA, the “one-hybrid fitness for binding NBS DNA” value is no more than 0.2.
On to QVHM, for which the “one-hybrid fitness for binding NBS DNA” value is no more than 0.2.
Consider FNNM, for which the “one-hybrid fitness for binding NBS DNA” value was no more than 0.2.
For the variant EVLR, the “one-hybrid fitness for binding NBS DNA” value is no more than 0.2.
Regarding YRNA, the “one-hybrid fitness for binding NBS DNA” value is no more than 0.2.
Take DYFR: the “one-hybrid fitness for binding NBS DNA” value is no more than 0.2.
As for MQAS, the “one-hybrid fitness for binding NBS DNA” value was no more than 0.2.
With QFSD, the “one-hybrid fitness for binding NBS DNA” value was no more than 0.2.
For AVLE, the “one-hybrid fitness for binding NBS DNA” value was no more than 0.2.
Regarding EYIL, the “one-hybrid fitness for binding NBS DNA” value was no more than 0.2.
For CTTT the value was no more than 0.2; for APMR, no more than 0.2.
With PKDS, the “one-hybrid fitness for binding NBS DNA” value was no more than 0.2.
For TLLV, the “one-hybrid fitness for binding NBS DNA” value is no more than 0.2.
For AKQM, the “one-hybrid fitness for binding NBS DNA” value was no more than 0.2.
Turning to QYEK, the “one-hybrid fitness for binding NBS DNA” value was no more than 0.2.
In the case of YMQG, the “one-hybrid fitness for binding NBS DNA” value was no more than 0.2.
As for LCEF, the “one-hybrid fitness for binding NBS DNA” value was no more than 0.2.
With PTRH, the “one-hybrid fitness for binding NBS DNA” value was no more than 0.2.
Consider DISG, for which the “one-hybrid fitness for binding NBS DNA” value is no more than 0.2.
On to RCSF, for which the “one-hybrid fitness for binding NBS DNA” value was no more than 0.2.
For TFHF the value was no more than 0.2.
YAWG: the “one-hybrid fitness for binding NBS DNA” value was no more than 0.2.
For HPYR the value was no more than 0.2; for QYGR, 0.553; for VGRT, no more than 0.2.
For the variant QYKW, the “one-hybrid fitness for binding NBS DNA” value was determined as 0.271.
Regarding NQYR, the “one-hybrid fitness for binding NBS DNA” value is no more than 0.2.
To IEKS belongs no more than 0.2; to RQHL, no more than 0.2; to CSIT, no more than 0.2.
For LCGS, the “one-hybrid fitness for binding NBS DNA” value was no more than 0.2.
Take KLDI: the “one-hybrid fitness for binding NBS DNA” value is no more than 0.2.
Take SARV: the “one-hybrid fitness for binding NBS DNA” value was no more than 0.2.
Consider RPFD, for which the “one-hybrid fitness for binding NBS DNA” value is no more than 0.2.
LPFS: the “one-hybrid fitness for binding NBS DNA” value was no more than 0.2.
In the case of HYTQ, the “one-hybrid fitness for binding NBS DNA” value is no more than 0.2.
To VILE belongs no more than 0.2.
Regarding TAWW, the “one-hybrid fitness for binding NBS DNA” value is no more than 0.2.
With SNIS, the “one-hybrid fitness for binding NBS DNA” value was no more than 0.2.
For the variant QARH, the “one-hybrid fitness for binding NBS DNA” value amounted to 0.529.
On to TMNP, for which the “one-hybrid fitness for binding NBS DNA” value was no more than 0.2.
As to PAAT, the “one-hybrid fitness for binding NBS DNA” value is no more than 0.2.
Turning to QNFR, the “one-hybrid fitness for binding NBS DNA” value was no more than 0.2.
In the case of GDTH, the “one-hybrid fitness for binding NBS DNA” value is no more than 0.2.
As for YANR, the “one-hybrid fitness for binding NBS DNA” value was no more than 0.2.
Consider SNYQ, for which the “one-hybrid fitness for binding NBS DNA” value is no more than 0.2.
As to YNAC, the “one-hybrid fitness for binding NBS DNA” value was no more than 0.2.
For VWNE the value was no more than 0.2; for ASAQ, no more than 0.2.
For HPSP the value was no more than 0.2; for SVYI, no more than 0.2; for IIPP, no more than 0.2.
For GWIR the value was no more than 0.2.
Consider EVPF, for which the “one-hybrid fitness for binding NBS DNA” value was no more than 0.2.
Regarding ETRS, the “one-hybrid fitness for binding NBS DNA” value was no more than 0.2.
Take INMM: the “one-hybrid fitness for binding NBS DNA” value was no more than 0.2.
As to YENF, the “one-hybrid fitness for binding NBS DNA” value is no more than 0.2.
For the variant WFSR, the “one-hybrid fitness for binding NBS DNA” value is no more than 0.2.
For HLAN the value was no more than 0.2; for TQDS, no more than 0.2.
To LFYE belongs no more than 0.2; to DQRH, no more than 0.2.
For FIMF the value was no more than 0.2.
Consider SHYV, for which the “one-hybrid fitness for binding NBS DNA” value was no more than 0.2.
RPLG: the “one-hybrid fitness for binding NBS DNA” value is no more than 0.2.
QFEG: the “one-hybrid fitness for binding NBS DNA” value was no more than 0.2.
For SMAW, the “one-hybrid fitness for binding NBS DNA” value was no more than 0.2.
For the variant TIDE, the “one-hybrid fitness for binding NBS DNA” value was no more than 0.2.
On to TATC, for which the “one-hybrid fitness for binding NBS DNA” value was no more than 0.2.
For SADV the value was no more than 0.2; for CLKG, no more than 0.2; for KIKM, no more than 0.2.
With SVCR, the “one-hybrid fitness for binding NBS DNA” value was no more than 0.2.
AVWI: the “one-hybrid fitness for binding NBS DNA” value is no more than 0.2.
Turning to ITAC, the “one-hybrid fitness for binding NBS DNA” value is no more than 0.2.
Consider NRMM, for which the “one-hybrid fitness for binding NBS DNA” value is no more than 0.2.
As for LRHM, the “one-hybrid fitness for binding NBS DNA” value is no more than 0.2.
Consider CWST, for which the “one-hybrid fitness for binding NBS DNA” value is no more than 0.2.
In the case of RPAY, the “one-hybrid fitness for binding NBS DNA” value is no more than 0.2.
Consider KLQM, for which the “one-hybrid fitness for binding NBS DNA” value was no more than 0.2.
Regarding ALKH, the “one-hybrid fitness for binding NBS DNA” value is no more than 0.2.
For the variant RANI, the “one-hybrid fitness for binding NBS DNA” value is no more than 0.2.
For QANE the value was no more than 0.2; for QRAN, 0.39.
For QRKT the value was 0.848; for KSPF, no more than 0.2.
For VGCS the value was no more than 0.2; for CTGD, no more than 0.2; for KCYW, no more than 0.2.
Take SYSW: the “one-hybrid fitness for binding NBS DNA” value is no more than 0.2.
On to IPNG, for which the “one-hybrid fitness for binding NBS DNA” value was no more than 0.2.
For QPSP, the “one-hybrid fitness for binding NBS DNA” value was no more than 0.2.
To QAFS belongs 0.218; to TDAT, no more than 0.2.
For NPHT the value was no more than 0.2; for YSCC, no more than 0.2; for TYKN, no more than 0.2.
As for VVPF, the “one-hybrid fitness for binding NBS DNA” value was no more than 0.2.
Take LSRD: the “one-hybrid fitness for binding NBS DNA” value was no more than 0.2.
For CLKT the value was no more than 0.2; for TRGI, no more than 0.2; for FTMC, no more than 0.2.
As to ILKM, the “one-hybrid fitness for binding NBS DNA” value was no more than 0.2.
For MYTD the value was no more than 0.2.
With SLDC, the “one-hybrid fitness for binding NBS DNA” value is no more than 0.2.
Turning to ISAE, the “one-hybrid fitness for binding NBS DNA” value is no more than 0.2.
Take DARV: the “one-hybrid fitness for binding NBS DNA” value is no more than 0.2.
With KHEE, the “one-hybrid fitness for binding NBS DNA” value was no more than 0.2.
As to ETLM, the “one-hybrid fitness for binding NBS DNA” value is no more than 0.2.
As for VWKM, the “one-hybrid fitness for binding NBS DNA” value was no more than 0.2.
To CCTW belongs no more than 0.2.
To NARR belongs no more than 0.2.
Consider VHCG, for which the “one-hybrid fitness for binding NBS DNA” value is no more than 0.2.
For the variant QCRR, the “one-hybrid fitness for binding NBS DNA” value came to 1.13.
Regarding RRSD, the “one-hybrid fitness for binding NBS DNA” value was no more than 0.2.
Regarding PHHP, the “one-hybrid fitness for binding NBS DNA” value was no more than 0.2.
To PKCQ belongs no more than 0.2; to NSIL, no more than 0.2; to SICS, no more than 0.2.
To VSPL belongs no more than 0.2; to YSHG, no more than 0.2; to DCRC, no more than 0.2.
For the variant VLRR, the “one-hybrid fitness for binding NBS DNA” value was no more than 0.2.
Consider QVKS, for which the “one-hybrid fitness for binding NBS DNA” value stood at 0.49.
Turning to EPVK, the “one-hybrid fitness for binding NBS DNA” value is no more than 0.2.
As for GAKK, the “one-hybrid fitness for binding NBS DNA” value was no more than 0.2.
Take HSGT: the “one-hybrid fitness for binding NBS DNA” value was no more than 0.2.
With EAQS, the “one-hybrid fitness for binding NBS DNA” value is no more than 0.2.
Regarding PRAV, the “one-hybrid fitness for binding NBS DNA” value is no more than 0.2.
As to CRAG, the “one-hybrid fitness for binding NBS DNA” value was no more than 0.2.
Turning to LSAK, the “one-hybrid fitness for binding NBS DNA” value was no more than 0.2.
As to FLSC, the “one-hybrid fitness for binding NBS DNA” value was no more than 0.2.
For CSPS, the “one-hybrid fitness for binding NBS DNA” value is no more than 0.2.
IISW: the “one-hybrid fitness for binding NBS DNA” value was no more than 0.2.
For the variant LPAE, the “one-hybrid fitness for binding NBS DNA” value was no more than 0.2.
Consider GTER, for which the “one-hybrid fitness for binding NBS DNA” value was no more than 0.2.
Regarding ANTD, the “one-hybrid fitness for binding NBS DNA” value is no more than 0.2.
For ILPA the value was no more than 0.2; for ELSK, no more than 0.2.
For the variant KIPI, the “one-hybrid fitness for binding NBS DNA” value was no more than 0.2.
Consider AIME, for which the “one-hybrid fitness for binding NBS DNA” value was no more than 0.2.
Turning to DHPC, the “one-hybrid fitness for binding NBS DNA” value is no more than 0.2.
To RNKV belongs no more than 0.2.
In the case of PILW, the “one-hybrid fitness for binding NBS DNA” value is no more than 0.2.

(Values after a collection of fitness landscapes (doi:10.1016/j.celrep.2020.107928).)
